Measurements as given in the supplement of paper PMC10338343.
± gives the standard deviation. The entries are a selection whose mix differs from that of the whole data set.

tested on: MIWI (PIWIL1) piRISC loaded with piRNA #1 (30 nt); assay: pre-steady-state target cleavage rate (min^-1); MIWI and MILI are mouse PIWI proteins and EfPiwi is from a freshwater sponge; tags in brackets are library labels; higher = faster piRNA-guided slicing of the target; details: guide: piRNA #1 5'p-UGAGGUAGUAGGUUGUAUAGUAUCCAGAGG; auxiliary factor: 500 nM mouse GTSF1
Summary of the method: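 Sequencing of uncleaved targets, normalised to depth and to weakly complementary targets, was the readout of this Cleave-'n-Seq assay. A transcribed, DNA-blocked target RNA library (0.1 nM) was mixed with 1 nM active affinity-purified piRISC carrying one synthetic guide, with or without 500 nM GTSF1 partner protein, in HEPES–potassium acetate buffer at 33 °C for 0–8 or 0–960 min. Three trials were pooled, k3 was capped at 0.0001 min^-1, and a burst-and-steady-state fit gave the pre-steady-state cleavage rate.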

Compared with CCUCAGGAUACUAUACAACCUACUAGCUCA, GGUCUGGUUACUAUACAUCCUACUACCUCA is higher in “pre-steady-state target cleavage rate” value: 1.13 ± 0.056 for the first, 1.68 ± 0.1 for the second.

Compared with GGACUGGAGACUAUACAACCUACUACCUCA, GGAGACCUAACUUUACAACCUACUAGCUCA is lower in “pre-steady-state target cleavage rate” value: 1.53 ± 0.1 for the first, 0.058 ± 0.022 for the second.

First: GCUCUCGAUACUAUAGAACCUACUACCUCA
Second: GGAGACCUUACAAUUCAACCUACUACCUCA
The “pre-steady-state target cleavage rate” value of the first is higher: 0.396 ± 0.045 for the first, 0.0147 ± 0.0037 for the second.

GGUCUGGAAACUAUACAACCUACUACGUCA and GGUCUCGAUACUAUACAACCUACAACCUCA are within error of each other in “pre-steady-state target cleavage rate” value: 0.506 ± 0.059 for the first, 0.534 ± 0.053 for the second.

Going from GGACUGGUACUAUACAACCUACUACCUCA to GGAGACCAUACUAUACAACGAACUACCUCA, the “pre-steady-state target cleavage rate” value falls from 1.63 ± 0.13 to 0.00598 ± 0.0026.

Going from GGAGACCUUACAAUACUACCUACUACCUCA to GGAGACCUAUGAUAUGUUGGUACUACCAGA, the “pre-steady-state target cleavage rate” value falls from 0.00811 ± 0.0031 to < 0.0001.

Compared with GGAGACGAUACUAUAGUUCCUACUACCUCA, GGACACGAUACUAUACAACCUACUACCUCA is higher in “pre-steady-state target cleavage rate” value: 0.157 ± 0.018 for the first, 1.51 ± 0.1 for the second.

Going from GGAGACCAAUCUAUACAACCUACUACCUCA to CCUCUGGAGUACUAUACAACCUACUACCUCA, the “pre-steady-state target cleavage rate” value falls from 1.04 ± 0.087 to 0.572 ± 0.046.

Compared with GGAGUGGAUACUAUACAACCUACUGACCUCA, GGACUGGUUACUAUACAUCCUACUACCUCA is higher in “pre-steady-state target cleavage rate” value: 0.489 ± 0.043 for the first, 1.28 ± 0.13 for the second.

First: GGAGACCUAACUAUACAUCCUACUUCCUCA
Second: GGAGACCUAUCAAUACAACCUACUAGCUCA
The “pre-steady-state target cleavage rate” value of the first is higher: 0.0847 ± 0.025 for the first, 0.00375 ± 0.0034 for the second.

Going from GGAGUGGAUACUAUACAACCUACUACCGCA to GGACUGGAUACUAUACAACCUACUACUCUCA, the “pre-steady-state target cleavage rate” value rises from 0.238 ± 0.024 to 1 ± 0.091.

Compared with GGAGACCUAUGAUAUGUUCCUACUACCAGA, GGAGACCAUACUAUACAACCUAGUAGCUCA is higher in “pre-steady-state target cleavage rate” value: < 0.0001 for the first, 0.00871 ± 0.0042 for the second.

Compared with GGAGAGGAUUCUAUACAACCUACUACCUGA, GGAGUGGAUACUAAACAUCCUACUACCUCA is higher in “pre-steady-state target cleavage rate” value: 0.301 ± 0.045 for the first, 0.961 ± 0.057 for the second.

Going from “GGAGACCUAUGAAUACAACCAUGAUGGAGA [g11:g18:cont:t1A]” to GGAGAGGAUACUAUACAACGUACUAGCUCA, the “pre-steady-state target cleavage rate” value rises from < 0.0001 to 0.055 ± 0.014.

GGACUGGUUACUAUACAACCUAGUACCUCA and CCUCUGGAUACUAUACAACCUUCUAGCUCA are within error of each other in “pre-steady-state target cleavage rate” value: 0.432 ± 0.062 for the first, 0.33 ± 0.042 for the second.

Compared with GGAGUGGAUACUAUACAACCUAACUACCUCA, CCUCUGGAUACUAUACAACCAACUUCCUCA is higher in “pre-steady-state target cleavage rate” value: 0.0225 ± 0.004 for the first, 0.0493 ± 0.01 for the second.

Going from GGACUGGAUACUAUACAAGCUACUACGUCA to GGUCUGGAUACUAUACAACCUUCUACCUCA, the “pre-steady-state target cleavage rate” value falls from 0.978 ± 0.064 to 0.689 ± 0.034.

GGACUGGAUACUUAUACAACCUACUACCUCA and GCUGUGGAUACAAUACAACCUACUACCUCA are within error of each other in “pre-steady-state target cleavage rate” value: 1.43 ± 0.12 for the first, 1.67 ± 0.12 for the second.

First: GGAGAGGAUACUAUACAACCUACUAGCCUCA
Second: GGAGACGUUACUAUACAAGCUACUACCUCA
The “pre-steady-state target cleavage rate” value of the first is lower: 0.675 ± 0.078 for the first, 0.869 ± 0.048 for the second.

With CCUCUGGAUACUAUGACAACCUACUACCUCA the “pre-steady-state target cleavage rate” value was 1.58 ± 0.095.
